Experimental data: PubChem BioAssay AID485367 (National Center for Advancing Translational Sciences (NCATS), 2010)
Out of some 330,000 compounds screened, about 560 (0.17%) were called active. Not shown: some 1% with an inconclusive outcome. The call rests on the fitted dose curve; in most records, active means well fitted inhibition curve with a large enough effect; inconclusive means small, poorly fitted or top-dose-only effect, or effect the other way; inactive means flat fitted curve, though single readings scatter. The list shows a part of the results, in another mix than the full data.

Biological target: ATP-dependent 6-phosphofructokinase (Trypanosoma brucei brucei) (UniProt O15648)
Chain of UniProt O15648 (O15648 whole entry, looked up): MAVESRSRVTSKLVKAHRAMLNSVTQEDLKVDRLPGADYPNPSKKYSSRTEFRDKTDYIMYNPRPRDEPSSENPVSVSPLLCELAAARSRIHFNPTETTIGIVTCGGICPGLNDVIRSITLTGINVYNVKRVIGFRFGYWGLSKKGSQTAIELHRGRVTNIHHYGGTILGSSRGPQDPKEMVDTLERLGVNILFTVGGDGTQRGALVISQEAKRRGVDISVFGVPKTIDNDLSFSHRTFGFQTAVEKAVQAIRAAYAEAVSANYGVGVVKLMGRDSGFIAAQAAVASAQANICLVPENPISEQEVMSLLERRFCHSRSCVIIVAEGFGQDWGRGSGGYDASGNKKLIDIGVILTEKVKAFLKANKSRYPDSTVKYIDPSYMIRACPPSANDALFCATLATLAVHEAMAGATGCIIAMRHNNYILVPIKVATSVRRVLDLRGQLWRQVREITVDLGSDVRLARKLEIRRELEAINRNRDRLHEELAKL
Assay: qHTS Assay to Find Inhibitors of T. brucei phosphofructokinase; further: nearly all actives have a fitted effect of over 60% in size
Conditions: T. brucei PFK, ADP-Glo luminescence; series mostly up to 57.5 µM; activity, negative = inhibition: at the top concentration
From the text: NIH Molecular Libraries Probe Production Network [MLPCN] NIH Chemical Genomics Center [NCGC] Grant: 1 R03 MH092153-01 PI Name: Malcolm Walkinshaw, University of Edinburgh NCGC Assay Overview: Various species of the protozoan family Trypanosomatidae are responsible for a range of serious human diseases in tropical and subtropical areas of the world. […] Many of the disorders caused by trypanosomatids are fatal if left untreated, but most currently used drugs are inefficient and toxic. […] Oxidative metabolism involving the mitochondrial tricarboxylic acid cycle and oxidative phosphorylation are repressed in these parasites, and recent RNA interference (RNAi) experiments have shown that even partial depletion of certain individual glycolytic enzymes can lead to the death of cultured parasites. One such glycolytic enzyme, phosphofructokinase (PFK), catalyzes the formation of fructose-1,6-bisphosphate (F1,6BP) and ADP from fructose-6-phosphate (F6P) and ATP, and in many metabolic circumstances makes an important contribution to the control of flux through the glycolytic pathway. As a specific glycolytic target, PFK is particularly attractive as it catalyzes the first irreversible step in glycolysis, and structural and kinetic studies have shown very substantial and essential differences from corresponding host enzymes, allowing for the discovery of parasite-selective inhibitors. The goal of this screen is to find small-molecule inhibitors of T. brucei PFK using a biochemical assay that measures PFK activity as a function of ADP production. A luminescence-based assay for T. brucei PFK activity has been developed which uses luciferase to detect production of ADP. Traditional luciferase-based nucleotide detection reagents rely on ATP production as a direct substrate for the luciferase reaction; however, PFK catalyzes the transfer of a phosphate from ATP to F6P, resulting in the net depletion of ATP. To directly measure the ADP product of the PFK reaction, we used the ADP-Glo detection kit (Promega), which utilizes two separate reactions to 1) deplete all remaining uncatalyzed ATP and 2) convert all remaining ADP to ATP, which is then detected through a traditional luciferase-coupled reaction. Compounds were screened as a concentration-titration series that ranged from 57 uM to 0.7 nM.
NCGC Assay Protocol Summary: NCGC Assay Protocol Summary: Substrate buffer was dispensed into white, solid 1536-well plates at 3uL/well in 0.1M triethanolamine (TEA) buffer, pH 8.0, containing final concentrations of 5 mM MgCl2, 0.01% Tween20, 0.5 mM fructose-6-phosphate (F6P) and 0.1mM ATP. Then, 23 nL of compounds or DMSO were delivered to each well using a pin tool. One uL T. brucei PFK (0.1M TEA, 0.01% Tween20, 0.1% bovine serum albumin (BSA) and 1.25nM PFK, final concentrations) was then dispensed, and plates were incubated at room temperature for 45 min. The luminescent detection reagent, ADP-Glo (Promega), was then added in two steps: the first reagent, ADP-Glo (which converts remaining uncatalyzed ATP), was added at 2.5uL/well and incubated for ten minutes at room temperature, and the second component, Kinase Detection reagent (which converts ADP to ATP as a substrate for luciferase-based luminescence), was added immediately after at 5uL/well, followed by one final ten minute room temperature incubation. The plates were measured on a ViewLux plate reader for luminescent signal using a clear filter with a one second exposure. The %Activity was determined from the corrected luminescence values. As no specific T. brucei PFK inhibitors have been identified in the literature, 1x (1.25nM) and 0x PFK enzyme controls (untreated) were included to normalize %Activity of identified inhibitors; 0x enzyme values corresponded to 100%Activity (full inhibition), while 1x PFK enzyme values were used to normalize 0%Activity (no inhibition). Concentration-response curves were fitted to the signals arising from the resulting luminescence. […]
Potency means the concentration at half of the fitted maximal effect.

Compound	Potency	activity, negative = inhibition
C[C@H](NC(=O)C1CCN(S(=O)(=O)c2ccccc2)CC1)C(=O)NCc1ccc(Cl)c(Cl)c1	active: 26.9 µM	
O=C(O)c1cc(-c2ccc(/C=c3\sc4nc5ccc(Br)cc5n4c3=O)o2)ccc1Cl	active: 0.849 µM	
CC(C)(C)OC(=O)C[C@H]1C/C=C\C[C@H](CC(=O)NCCO)C(=O)NC[C@@H](c2ccccc2)OC1=O		inactive: -6.55%
CN(Cc1ccco1)c1ncnc2ccc(-c3ccoc3)cc12		inactive: -25.2%
Oc1cc(O)c2c(c1)O[C@H](c1ccc(O)c(O)c1)[C@@H](O)C2		inactive: -10.9%
Cc1ccc(NC(=O)CN2C(=O)N/C(=C\c3ccco3)C2=O)cc1		inactive: -0.306%
Cc1ccc(S(=O)(=O)/N=C2/NC(=O)/C(=C/c3ccccc3)S2)cc1		inactive: 9.57%
CCOC(=O)/C(=C\C=C1/Sc2ccccc2N1CC)C(C)=O		inactive: 5.27%
CC(C)(C)OC(=O)C[C@H]1C/C=C\C[C@@H](CC(=O)NCCO)C(=O)NC[C@@H](c2ccccc2)OC1=O		inactive: 11.1%
S=C(Nc1ccccn1)c1ccccn1		inactive: -15.8%
O=C1OC(c2ccccc2)=C/C1=C\N1CCOCC1		inactive: -26.8%
C=CC[C@@H](CC(=O)N[C@@H](CO)Cc1ccccc1)C(=O)N[C@H](COC(=O)[C@@H](CC=C)Cc1ccc(F)cc1)Cc1ccccc1		inactive: 1.67%
COc1ccc(C(=O)O/N=C(\N)c2ccccn2)cc1	active: 15.1 µM	
C=CC[C@@H](CC(=O)N[C@@H](CO)Cc1ccccc1)C(=O)N[C@@H](COC(=O)[C@@H](CC=C)Cc1ccc(F)cc1)Cc1ccccc1		inactive: 2.02%
COc1cc(N=c2ssnc2Cl)c(OC)cc1Cl		inactive: 0.784%
CC(C)(C)OC(=O)C[C@@H]1C/C=C\C[C@H](CC(=O)N(CCO)Cc2ccccc2)C(=O)N[C@H](C(C)(C)C)COC1=O		inactive: -5.12%
CC(C)(C)OC(=O)C[C@H]1C/C=C\C[C@H](CC(=O)NCCO)C(=O)NC[C@H](c2ccccc2)OC1=O		inactive: -2.63%
CC(=C/c1ccco1)/C=N/NC(=O)Cc1cccn1C		inactive: -1.85%
Cc1ccc2c(c1C)NC(C(=O)O)C1CC=CC21 (stereo unspecified)		inactive: -10.5%
CN(/C=C/C(=C/C=[N+](C)c1ccccc1)OCCCS(=O)(=O)[O-])c1ccccc1		inactive: -20.1%
O=C(NC1CCS(=O)(=O)C1)/C(=C\c1ccco1)NC(=O)c1ccccc1 (stereo unspecified)		inactive: -3.44%
Oc1cc(O)c2c(c1)O[C@H](c1ccc(O)c(O)c1)[C@H](O)C2		inactive: -11.9%
CCn1c(/C=C2\C(=O)N(C)c3ccccc32)nc2ccccc2c1=O		inactive: -6.29%

Compound	Potency	activity, negative = inhibition
COc1ccc(NC(=O)/C(C#N)=C\c2ccc(Br)o2)cc1		inactive: -17%
CC(=O)C[C@@H](O)CC(=O)[C@H]1OC(=O)[C@H](C)CCCCc2ccccc21		inactive: -1.01%
COc1ccc([C@@H]2CC(=O)c3c(O)cc(O[C@@H]4OC(CO[C@@H]5OC(C)[C@H](O)[C@@H](O)[C@H]5O)[C@@H](O)[C@H](O)[C@H]4O)cc3O2)cc1O (stereo partly specified)		inactive: 0.29%
CC1=NN(Cc2ccccc2)C(=O)/C1=C/c1ccc(N(C)C)cc1		inactive: -1.43%
COc1ccc(S(=O)(=O)/N=C2/NC(=O)/C(=C/c3ccco3)S2)cc1		inactive: 3.81%
C/C=C(/C)C(=O)OC1CC(C)(C)C[C@H]2C3=CC[C@@H]4[C@@]5(C)CCC(O[C@@H]6O[C@@H](C(=O)O)[C@@H](O)C(O[C@@H]7OC[C@H](O)[C@@H](O)[C@@H]7O[C@@H]7OC(CO)C(O)[C@@H](O)[C@@H]7O)C6O[C@@H]6OC(CO)C(O)C(O)C6O)[C@@](C)(CO)[C@@H]5CC[C@]4(C)[C@]3(C)CC(O)[C@@]12CO (stereo partly specified)		inactive: 6.33%
Nc1ccc(C(=O)O)cc1		inactive: -5.87%
Nc1ncn(C2O[C@H](CO)[C@@H](O)[C@H]2O)c(=O)n1 (stereo partly specified)		inactive: 0.391%
Cc1occc(=O)c1OC(=O)Nc1ccc(Cl)c(Cl)c1	active: 30.1 µM	
O=c1cc(-c2ccccc2)oc2cc(O)c(O)c(O)c12	active: 7.57 µM	
CC(=O)C[C@@H](O)CC(=O)[C@@H]1OC(=O)[C@H](C)CCCCc2ccccc21		inactive: -1.9%
Nc1c2c(nc3ccccc13)CCCC2		inactive: -5.86%
CCOC(=O)c1c(NC(=O)COC(=O)c2ccc(NC(=O)CC#N)cc2)sc(C(=O)NC)c1C	active: 0.849 µM	
O=C(Cc1cccs1)N/N=C/C=C\c1ccco1		inactive: 0.121%
CC(C)NCC(O)c1ccc(O)c(O)c1 (stereo unspecified)		inactive: 0.554%
CCN1CCN(c2nc(C)nc3c2sc(=S)n3C)CC1	active: 19 µM	
CC(C)(C)OC(=O)C[C@@H]1C/C=C\C[C@@H](CC(=O)NCCO)C(=O)NC[C@@H](c2ccccc2)OC1=O		inactive: -14.3%
CC1=C/C(=C(/c2cc(C)c(O)c(Br)c2)c2ccccc2S(=O)(=O)O)C=C(Br)C1=O		inactive: -29.8%
N[C@@H](Cc1cc(I)c(Oc2ccc(O)c(I)c2)c(I)c1)C(=O)O	inactive	
COc1ccc(NC(=O)N(C)C[C@H]2Oc3ccc(NS(=O)(=O)c4cccs4)cc3C(=O)N([C@@H](C)CO)C[C@@H]2C)cc1		inactive: 1.48%
O=C(CCS(=O)(=O)c1ccc(F)cc1)Nc1nc(-c2ccncc2)cs1	active: 21.3 µM	
CCNc1nc(NCC)n2c(SCC(=O)Nc3ccc(CC)cc3)nnc2n1	active: 21.3 µM	
CC1(C)S[C@@H]2[C@H](NC(=O)[C@H](N)c3ccccc3)C(=O)N2[C@H]1C(=O)O		inactive: 4.35%
